Results from the supplement of paper PMC9334596.
“And” between values parts separate entries of the source, which are not always exact repeats. Identical values can stand only once. Whole data set: some 5,300 compounds, median “PER2::LUC luminescence relative to vehicle control” near 0.96, cut for the highest 2% near 1.3. Some of the results follow.

Test system: mPer2Luc MEF
Assay: PER2::LUC luminescence relative to vehicle control (fold of vehicle); higher = higher PER2::LUC reporter signal
Details: 10 µM
Procedure, shortened: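 Mouse embryonic fibroblasts carrying the mPer2Luc reporter were seeded at ~3000 cells per well in 384-well plates, 48 h before compounds from commercial libraries were added at 10 μM. Cells were grown in DMEM with 10% FBS at 37 °C and 5% CO2. Luminescence was read with the ONE-Glo luciferase assay system 24 h and 30 h after treatment, followed by an alamarBlue viability assay. The value is PER2::LUC luminescence as fold of vehicle control.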

Row | Structure (SMILES) | PER2::LUC luminescence (time after treatment 24 h) | PER2::LUC luminescence (time after treatment 30 h)
1 | CCOC(=O)CCN(C(=O)c1ccc2c(c1)nc(CNc1ccc(C(=N)N)cc1)n2C)c1ccccn1 | 1.05 | 0.998
2 | COc1ccccc1N1CCN(CCN2C(=O)N=C3C(=Nc4ccccc43)C2=O)CC1 | 0.831 | 0.823
3 | Nn1cc(Br)c(=O)[nH]c1=O | 0.972 | 0.954
4 | [N-]=[N+]=Nc1ccc(C(=O)CSC[C@H](NC(=O)CC[C@H](N)C(=O)O)C(=O)NCC(=O)O)cc1 | 1.02 | 0.976
5 | CCN1CCN(c2cc(-c3ccc(F)cc3)c3c(n2)CCCCCC3)CC1 | 0.89 | 0.829
6 | O=C(O)c1ccc(S(=O)(=O)N(Cc2ccc(OC(F)(F)F)cc2)c2ncc(C(F)(F)F)cc2Cl)cc1 | 0.814 | 0.911
7 | O=C([O-])C(O)[C@H](O)[C@@H](O)[C@H](O)[C@H](O)CO.O=C([O-])C(O)[C@H](O)[C@@H](O)[C@H](O)[C@H](O)CO.[Ca+2] (some centres not stated) | 0.911 | 0.936
8 | O=C(/C=C/c1ccccc1)c1ccc(O)cc1O | 1.21 | 1.43
9 | Cc1c(OCC(F)(F)F)ccnc1C[S+]([O-])c1nc2ccccc2[nH]1 (configuration not stated) | 1.17 | 1.67
10 | Cn1c(=O)c2c(ncn2C)n(C)c1=O | 0.866 | 0.985
11 | CCCCCCCC/C=C\CCCCCCCC(=O)O | 1.14 | 1.15
12 | Fc1ccc(CNc2ncnc3ccc(F)cc23)cc1 | 0.45 | 0.344
13 | CCS(=O)(=O)N1CCC([C@@H](C)n2c(C)c(C(=O)NCc3c(OC)cc(C)[nH]c3=O)c3ccccc32)CC1 | 1.07 | 1.05
14 | COc1cc2ncnc(Nc3cc(Br)c(O)c(Br)c3)c2cc1OC | 0.968 | 0.571
15 | Fc1ccc(-c2cncc(CN3CCN(c4cccc5c4OCCO5)CC3)c2)cc1 | 1.04 | 1.05
16 | CCCCC[C@H](O)CC(=O)CCc1ccc(O)c(OC)c1 | 1.14 | 0.963
17 | CO[C@H]1C[C@@H]2CC[C@@H](C)[C@@](O)(O2)C(=O)C(=O)N2CCCC[C@H]2C(=O)O[C@H]([C@H](C)C[C@@H]2CC[C@@H](OP(C)(C)=O)[C@H](OC)C2)CC(=O)[C@H](C)/C=C(\C)[C@@H](O)[C@@H](OC)C(=O)[C@H](C)C[C@H](C)/C=C/C=C/C=C/1C | 0.516 | 0.54
18 | Cc1cc(O)cc(=O)o1 | 0.961 | 0.977
19 | Nc1ncnc2c1c(-c1cccc(OCc3ccccc3)c1)cn2C1CC(CN2CCCC2)C1 (configuration not stated) | 0.528 | 0.474
20 | O=C(Nc1cccc(Cl)c1)Nc1ncc(CCNc2ncnc3ccsc23)s1 | 0.711 | 0.641
21 | c1ccc(Cc2nc3ccccc3[nH]2)cc1 | 1.17 | 0.971

Row | Structure (SMILES) | PER2::LUC luminescence (time after treatment 24 h) | PER2::LUC luminescence (time after treatment 30 h)
22 | CCc1c(C(=O)NCCc2ccc(N3CCCCC3)cc2)[nH]c2ccc(Cl)cc12 | 1.02 | 1.06
23 | NC1(C(=O)O)CCc2cc(P(=O)(O)O)ccc21 (racemic) | 1.03 | 1.01
24 | Cc1ccc(NC(=O)Nc2cc(-c3ccccc3-c3nn[nH]n3)ccc2N(CC(C)C)CC(C)C)cc1 | 0.966 | 0.93
25 | CC(C)[C@@H]1CC[C@@H](C)C[C@H]1OC(=O)c1ccccc1 | 1.05 | 1.05
26 | S=P(N1CC1)(N1CC1)N1CC1 | 1.09 and 0.575 | 1.02 and 0.928
27 | CCCS(=O)(=O)Nc1ccc(F)c(C(=O)c2c[nH]c3ncc(Cl)cc23)c1F | 1.09 | 1.06
28 | CCN1CCCC1CNC(=O)c1cc(S(=O)(=O)CC)c(N)cc1OC (configuration not stated) | 1.06 and 0.919 | 1.02 and 0.946
29 | Nc1nc(N)nc(-c2cc(Cl)ccc2Cl)n1 | 1 and 0.992 | 1.02 and 1
30 | CNC(=O)CN1CCC(Oc2cc3c(Nc4cccc(Cl)c4F)ncnc3cc2OC)CC1 | 0.899 | 0.828
31 | CC1(C)S[C@@H]2[C@H](/N=C/N3CCCCCC3)C(=O)N2[C@H]1C(=O)O | 0.917 | 0.879
32 | O=C(NCC1CCCCN1)c1cc(OCC(F)(F)F)ccc1OCC(F)(F)F (configuration not stated) | 0.965 | 0.73
33 | CC1CCc2cc(F)cc3c(=O)c(C(=O)O)cn1c23 (configuration not stated) | 0.93 | 0.807
34 | COc1cc2c(cc1OC)-c1c(oc3cc(O)cc(O)c3c1=O)CO2 | 0.992 | 0.945
35 | CCOC(=O)c1cn(-c2c(F)c(F)c(C#N)c(F)c2F)c2c(F)c(F)c(F)cc2c1=O | 1.08 | 1.19
36 | CCCCOc1ccc(OCCCN2CCOCC2)cc1 | 1.12 | 1.18
37 | C[C@@H](O)[C@H]1C(=O)N2C(C(=O)OCOC(=O)C(C)(C)C)=C(SC3CN(C4=NCCS4)C3)[C@H](C)[C@H]12 | 1.04 | 0.954
38 | COc1ccc(-n2nc(C(N)=O)c3c2C(=O)N(c2ccc(N4CCCCC4=O)cc2)CC3)cc1 | 1.1 | 1.12
39 | COc1ccc(C(C)=O)c(O)c1 | 0.967 | 0.936
40 | COC(=O)[C@@H]1OC(=O)C2OC23[C@@]1(C)CCC1[C@]2(C)C(C[C@@H](O)[C@]13C)C(C)(C)[C@H](OC(C)=O)C[C@@H]2OC(C)=O (some centres not stated) | 0.961 | 0.952
41 | COc1cc(-c2nc3ccccc3s2)ccc1O | 1.37 | 1.5
42 | COc1ccc(CCCOC(Cn2ccnc2)c2ccc(OC)cc2)cc1 (configuration not stated) | 0.798 and 0.555 | 0.782 and 0.601

Row | Structure (SMILES) | PER2::LUC luminescence (time after treatment 24 h) | PER2::LUC luminescence (time after treatment 30 h)
43 | CC(=O)Oc1cccc(C(=O)O)c1OC(C)=O | 1.02 | 1.07
44 | COc1c(O)cc2c(c1O)[C@@H]1O[C@H](CO)[C@@H](O)[C@H](O)[C@H]1OC2=O | 1.22 and 1.09 | 0.916 and 1.05
45 | CC(C)[C@H]1CC[C@H](C(=O)N[C@H](Cc2ccccc2)C(=O)O)CC1 | 1.03 | 1
46 | Nc1cccc(-c2cc3c(Oc4cccc(O)c4)ncnc3[nH]2)c1 | 0.539 | 0.47
47 | NC(=O)C[n+]1cccc(C(=O)O)c1 | 1.18 | 1.08
48 | COc1ccccc1OCCNCC(O)COc1cccc2[nH]c3ccccc3c12 (configuration not stated) | 0.663 and 0.591 | 0.679 and 0.605
49 | CC(C)c1nc(CN(C)C(=O)N[C@H](C(=O)N[C@@H](Cc2ccccc2)C[C@H](O)[C@H](Cc2ccccc2)NC(=O)OCc2cncs2)C(C)C)cs1 | 0.937 | 0.862
50 | CCCOC(=O)c1c(-c2ccccc2)nc(CC)c(C(=O)SCC)c1CCC | 1.06 | 0.796
51 | CCC(CC)[C@H](NC(C)=O)[C@@H]1[C@H](O)[C@@H](C(=O)O)C[C@H]1NC(=N)N | 0.941 | 0.985
52 | N[C@@H](C(=O)O)c1ccc(O)c(C(=O)O)c1 | 1.12 | 1
53 | CCn1cc(C(=O)O)c(=O)c2cc(F)c(N3CCNCC3)cc21 | 0.839 | 0.791
54 | Cc1cc(Cc2cc(C)cc(C(C)(C)C)c2O)c(O)c(C(C)(C)C)c1 | 0.949 | 0.925
55 | CN(C)c1nc(N)c(C(=O)NC(=N)N)nc1Cl | 1.04 | 1.12
56 | c1ccc(N2CCN(CCCOc3ccc4c(c3)OCO4)CC2)cc1 | 0.829 | 0.83
57 | O=c1c(O)c(-c2ccc(O)c(O)c2)oc2c(O[C@@H]3O[C@H](CO)[C@@H](O)[C@H](O)[C@H]3O)c(O)cc(O)c12 | 0.934 | 0.879
58 | CC1(C)S[C@@H]2[C@H](N3C(=O)[C@@H](c4ccccc4)NC3(C)C)C(=O)N2[C@H]1C(=O)O | 1.18 | 0.92
59 | CCOC(=O)C1=C(C)NC(C)=C(C(=O)OC)C1c1cccc([N+](=O)[O-])c1 (configuration not stated) | 1.06 and 0.626 | 1.37 and 0.715
60 | CC(=O)O[C@H]1C[C@@H](OC(C)=O)C(C)(C)C2CC(=O)[C@]3(C)C(CC[C@@]4(C)[C@H](C(=O)O)OC(=O)C5OC543)[C@]21C (some centres not stated) | 1.05 | 1.02
61 | CCCCCCCCCCCCCCCCC(C(=O)O)C(O)(CC(=O)O)C(=O)O (configuration not stated) | 0.989 | 0.975
62 | Cc1nc2c(OCc3ccccc3)cccn2c1CC#N | 0.965 | 0.778
63 | N[C@H](C(=O)O)[C@H](Cc1ccccc1)C(=O)O | 0.943 | 0.916

Row | Structure (SMILES) | PER2::LUC luminescence (time after treatment 24 h) | PER2::LUC luminescence (time after treatment 30 h)
64 | O=c1oc2ccc(O)cc2c2c1NCCC2 | 0.764 | 1.05
65 | CN(C)[C@@H]1CCc2[nH]c3ccc(NC(=O)c4ccc(F)cc4)cc3c2C1 | 0.892 | 0.939
66 | CCOc1cc(N2CCC(O)CC2)ccc1Nc1ncc2c(n1)N(C)c1ccccc1C(=O)N2C | 0.29 | 0.332
67 | Fc1ccc2[nH]ccc2c1-c1nc(N2CCOCC2)c2sc(CN3CCN(CC4CC4)CC3)cc2n1 | 0.63 | 0.606
68 | C=C1[C@H]2CC[C@@]3(C)[C@H](c4ccoc4)OC(=O)C[C@]13O[C@H]1C[C@H](O)C(C)(C)[C@H](CC(=O)OC)[C@]12C | 1.01 | 1.02
69 | CC(CN1c2ccccc2Sc2ccccc21)N(C)C (configuration not stated) | 0.859 and 0.812 | 0.787 and 0.681
70 | Cc1ccc(NC(=O)Nc2cc(C(F)(F)F)ccc2F)cc1Nc1ccc2c(c1)NC(=O)/C2=C\c1ccc[nH]1 | 0.837 | 1.16
71 | CNC(=O)c1ccccc1Sc1ccc2c(/C=C/c3ccccn3)n[nH]c2c1 | 1.07 | 0.982
72 | NS(=O)(=O)c1cc2c(cc1C(F)(F)F)NC(Cc1ccccc1)NS2(=O)=O (configuration not stated) | 0.938 | 1.08
73 | O=C(CCCCCCCCCCCCC1CCCC1)Nc1ccc(S(=O)(=O)c2ccc(NC(=O)CCCCCCCCCCCCC3CCCC3)cc2)cc1 | 1.06 | 1.02
74 | CNC(=O)c1ccc(N2C(=S)N(c3cnc(C#N)c(C(F)(F)F)c3)C(=O)C23CCC3)cc1F | 1.3 | 1.16
75 | CCCCC[C@H](O)/C=C/[C@@H]1[C@@H](C/C=C\CCCC(=O)O)[C@H](O)C[C@H]1O | 1.1 | 1.1
76 | O=C(c1ccc(OCCN2CCCCC2)cc1)c1c(-c2ccc(O)cc2)sc2cc(O)ccc12 | 0.35 | 0.69
77 | O=C(/C=C/c1ccccc1)NC(NC(=S)Nc1ccc(Cl)cc1)C(Cl)(Cl)Cl (configuration not stated) | 0.96 | 1.16
78 | NCc1c[nH]c(=S)n1[C@H]1CCc2c(F)cc(F)cc2C1 | 0.941 | 1.04
79 | C[C@@H]1CC2C3C[C@H](F)C4=CC(=O)C=C[C@]4(C)[C@@]3(F)[C@@H](O)C[C@]2(C)[C@@]1(O)C(=O)COC(=O)C(C)(C)C (some centres not stated) | 0.848 | 1.04
80 | Cn1c(SCC(=O)N2CCC[C@H]2C(=O)Nc2ccccc2-c2ccccc2)nc2ccccc21 | 1.16 | 1.07
81 | O=C(O)CCc1nc2ccccc2[nH]1 | 0.977 | 0.934
